# Data: publication PMC12820563
# Some of the results follow. The list includes weakly bound sequences.
# Target: T1, MBP-FoxP3dN (UniProt Q99JB6)
# T1 sequence: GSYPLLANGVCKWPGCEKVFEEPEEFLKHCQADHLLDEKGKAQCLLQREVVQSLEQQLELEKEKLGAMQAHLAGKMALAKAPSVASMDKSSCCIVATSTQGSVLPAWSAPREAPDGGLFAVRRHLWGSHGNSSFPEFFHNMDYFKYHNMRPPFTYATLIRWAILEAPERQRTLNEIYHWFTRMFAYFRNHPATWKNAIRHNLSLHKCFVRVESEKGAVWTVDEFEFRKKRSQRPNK
# Test: PD-seq (MBP pull-down with sequencing)
# Conditions: 20 mM Tris-HCl pH 7.5, 100 mM NaCl, 1.5 mM MgCl2, 0.4 uM protein, 0.1 uM dsDNA library, 30 min, room temperature, amylose pull-down; high values mean tight binding; double strand, one strand shown
row,Sequence,binding signal (RPM ratio (pull-down/input))
1,GATGATTGTTCTCCCAGCTGATGAATTTGGACCGTCGAGTAAACAAATTTTCCTAATCTTTCTGTTCAAGCGCCATCTAC,0.489
2,GATGATTGTTCTCCCAGCTGATGAATTAGGTTTGTCGAGTAAACAAATTTTCCTAATCTTTCTGTTCAAGCGCCATCTAC,2.95
3,GATGATTGTTCTCCCAGCTGATGAATTGATCTCTTCGAGTAAACAAATTTTCCTAATCTTTCTGTTCAAGCGCCATCTAC,0.317
4,GATGATTGTTCTCCCAGCTGATGAATTGCAAGCATCGAGTAAACAAATTTTCCTAATCTTTCTGTTCAAGCGCCATCTAC,1.48
5,GATGATTGTTCTCCCAGCTGATGAATTGAAGCTGTCGAGTAAACAAATTTTCCTAATCTTTCTGTTCAAGCGCCATCTAC,0.403
6,GATGATTGTTCTCCCAGCTGATGAATTCTACAGGTCGAGTAAACAAATTTTCCTAATCTTTCTGTTCAAGCGCCATCTAC,0.222
7,GATGATTGTTCTCCCAGCTGATGAATTGGGCACATCGAGTAAACAAATTTTCCTAATCTTTCTGTTCAAGCGCCATCTAC,0.783
8,GATGATTGTTCTCCCAGCTGATGAATTGTATCCGTCGAGTAAACAAATTTTCCTAATCTTTCTGTTCAAGCGCCATCTAC,0.998
9,GATGATTGTTCTCCCAGCTGATGAATTCCAACCATCGAGTAAACAAATTTTCCTAATCTTTCTGTTCAAGCGCCATCTAC,0.315
10,GATGATTGTTCTCCCAGCTGATGAATTAGACGGCTCGAGTAAACAAATTTTCCTAATCTTTCTGTTCAAGCGCCATCTAC,0.332
11,GATGATTGTTCTCCCAGCTGATGAATTCCAACGTTCGAGTAAACAAATTTTCCTAATCTTTCTGTTCAAGCGCCATCTAC,0.354
12,GATGATTGTTCTCCCAGCTGATGAATTATGTCAATCGAGTAAACAAATTTTCCTAATCTTTCTGTTCAAGCGCCATCTAC,0.834
13,GATGATTGTTCTCCCAGCTGATGAATTATTTGTTTCGAGTAAACAAATTTTCCTAATCTTTCTGTTCAAGCGCCATCTAC,4.2
14,GATGATTGTTCTCCCAGCTGATGAATTTAAGTACTCGAGTAAACAAATTTTCCTAATCTTTCTGTTCAAGCGCCATCTAC,0.809
15,GATGATTGTTCTCCCAGCTGATGAATTTCGTAGTTCGAGTAAACAAATTTTCCTAATCTTTCTGTTCAAGCGCCATCTAC,0.915
16,GATGATTGTTCTCCCAGCTGATGAATTCGCCCAGTCGAGTAAACAAATTTTCCTAATCTTTCTGTTCAAGCGCCATCTAC,0.243
17,GATGATTGTTCTCCCAGCTGATGAATTAAGATGCTCGAGTAAACAAATTTTCCTAATCTTTCTGTTCAAGCGCCATCTAC,1.12
18,GATGATTGTTCTCCCAGCTGATGAATTGCGTCGGTCGAGTAAACAAATTTTCCTAATCTTTCTGTTCAAGCGCCATCTAC,0.862
19,GATGATTGTTCTCCCAGCTGATGAATTCATTCGCTCGAGTAAACAAATTTTCCTAATCTTTCTGTTCAAGCGCCATCTAC,0.332
20,GATGATTGTTCTCCCAGCTGATGAATTGCGGCGGTCGAGTAAACAAATTTTCCTAATCTTTCTGTTCAAGCGCCATCTAC,0.612

row,Sequence,binding signal (RPM ratio (pull-down/input))
1,GATGATTGTTCTCCCAGCTGATGAATTGTCGGCTTCGAGTAAACAAATTTTCCTAATCTTTCTGTTCAAGCGCCATCTAC,0.343
2,GATGATTGTTCTCCCAGCTGATGAATTGTTACTTTCGAGTAAACAAATTTTCCTAATCTTTCTGTTCAAGCGCCATCTAC,0.923
3,GATGATTGTTCTCCCAGCTGATGAATTAAGCGGATCGAGTAAACAAATTTTCCTAATCTTTCTGTTCAAGCGCCATCTAC,0.341
4,GATGATTGTTCTCCCAGCTGATGAATTCGGAGACTCGAGTAAACAAATTTTCCTAATCTTTCTGTTCAAGCGCCATCTAC,0.479
5,GATGATTGTTCTCCCAGCTGATGAATTCACAATCTCGAGTAAACAAATTTTCCTAATCTTTCTGTTCAAGCGCCATCTAC,0.439
6,GATGATTGTTCTCCCAGCTGATGAATTAATATGGTCGAGTAAACAAATTTTCCTAATCTTTCTGTTCAAGCGCCATCTAC,0.648
7,GATGATTGTTCTCCCAGCTGATGAATTGACGTGGTCGAGTAAACAAATTTTCCTAATCTTTCTGTTCAAGCGCCATCTAC,0.428
8,GATGATTGTTCTCCCAGCTGATGAATTTCAGGACTCGAGTAAACAAATTTTCCTAATCTTTCTGTTCAAGCGCCATCTAC,0.238
9,GATGATTGTTCTCCCAGCTGATGAATTAAGATATTCGAGTAAACAAATTTTCCTAATCTTTCTGTTCAAGCGCCATCTAC,0.69
10,GATGATTGTTCTCCCAGCTGATGAATTAGGTCAGTCGAGTAAACAAATTTTCCTAATCTTTCTGTTCAAGCGCCATCTAC,0.278
11,GATGATTGTTCTCCCAGCTGATGAATTCTAACTATCGAGTAAACAAATTTTCCTAATCTTTCTGTTCAAGCGCCATCTAC,0.447
12,GATGATTGTTCTCCCAGCTGATGAATTCCGTTGCTCGAGTAAACAAATTTTCCTAATCTTTCTGTTCAAGCGCCATCTAC,1.05
13,GATGATTGTTCTCCCAGCTGATGAATTAAATCTTTCGAGTAAACAAATTTTCCTAATCTTTCTGTTCAAGCGCCATCTAC,0.279
14,GATGATTGTTCTCCCAGCTGATGAATTACGTTGCTCGAGTAAACAAATTTTCCTAATCTTTCTGTTCAAGCGCCATCTAC,1.14
15,GATGATTGTTCTCCCAGCTGATGAATTACAGGTGTCGAGTAAACAAATTTTCCTAATCTTTCTGTTCAAGCGCCATCTAC,0.684
16,GATGATTGTTCTCCCAGCTGATGAATTCGCAGATTCGAGTAAACAAATTTTCCTAATCTTTCTGTTCAAGCGCCATCTAC,0.316
17,GATGATTGTTCTCCCAGCTGATGAATTTAGTGATTCGAGTAAACAAATTTTCCTAATCTTTCTGTTCAAGCGCCATCTAC,1.91
18,GATGATTGTTCTCCCAGCTGATGAATTGGGCGCATCGAGTAAACAAATTTTCCTAATCTTTCTGTTCAAGCGCCATCTAC,1.39
19,GATGATTGTTCTCCCAGCTGATGAATTCATCCAGTCGAGTAAACAAATTTTCCTAATCTTTCTGTTCAAGCGCCATCTAC,0.248
20,GATGATTGTTCTCCCAGCTGATGAATTGTGCTTGTCGAGTAAACAAATTTTCCTAATCTTTCTGTTCAAGCGCCATCTAC,5.16
